# Reference: the supplement of paper PMC11417369
# ± gives the standard deviation of the averaged measurements. This is one part of the list.
# System: PfAP2-EXP AP2 domain (GST-tagged)
# Assay: gcPBM binding intensity (ln(normalized median fluorescence intensity)); higher = stronger DNA binding
# Procedure, shortened: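 Plasmodium falciparum DNA-binding domains carrying a GST tag were expressed in E. coli and applied for 1 h, at about 25 μg on average, to an Agilent 4 × 180k array. The array held primer-extended double-stranded 36-bp intergenic genomic probes together with negative controls, and binding took place in 1× PBS with 1% milk, 0.2 mg/ml BSA, 0.5% salmon testes DNA and 0.03% Triton X-100. An Alexa488 anti-GST antibody detected bound protein, and the array was scanned at 488 nm. Binding intensity is taken as the highest Masliner-normalised natural-log median intensity across replicate spots of either probe orientation.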
row,Sequence,gcPBM binding intensity (ln)
1,GTATGTATGTATGTATGTACTTATTAATCAGTAAAA [XGTACX_site3844],9.245 ± 0.092
2,TTTTTGTTAACAATGGGTACAAAAAAAAGGAAAATA [XGTACX_site7466],8.88 ± 0.47
3,CCCAAAAAATATCATAGTACTCAACATGACTACTAT [XGTACX_site7838],8.87 ± 0.83
4,AATTTTGTATAGGTATCACACATGAAATATATTATT [CACACA_site5526],8.46 ± 0.47
5,AAATAAAATAATAAAACATGCAAAAATAATGATTTA [TGCATGCA_site415],9.03 ± 0.17
6,ATAAAGATTAACAAAGTGCATTTATATATATAATCT [GTGCAC_site9407],8.61 ± 0.35
7,GGAACTTAAAAAAAATGTACTTATAAAAAAGGAAAT [XGTACX_site8186],8.69 ± 0.49
8,AAGAAAAGCATAGATGCACACATATATATATATATA [CACACA_site8675],10.2 ± 0.33
9,AACATGCAAACATGCACACAGAAAAAAAAAATATAT [CACACA_site1565],8.89 ± 0.51
10,TTACACATACATATGTGGGAAAATATTGCTACATAT [CACACA_negctrl_site463],8.57 ± 0.49
11,TATATATATATATATACACACATATATATATTTTTC [CACACA_site3983],10.2 ± 0.26
12,AACAATGGATTATTCACACATAAAAAAATTCACATT [CACACA_site5437],8.4 ± 0.43
13,AATACCTATGGAATTAATAATATGTGTACAGACACA [TGCATGCA_negctrl_site547],8.53 ± 0.15
14,CATTAAACCGTGGGAGCACACACACCCACCCACCCA [CACACA_site8000],8.95 ± 0.36
15,AATTTAAAGAATTGTAGTACAATGAAATATATATAA [XGTACX_site7970],8.67 ± 0.45
16,ATCATTATATTATGGTGTACCCATATATAATTATCA [XGTACX_site551],8.44 ± 0.26
17,AAAAAAATATATATATGTACATAACTTTGTTGTGAT [XGTACX_site5243],8.64 ± 0.42
18,TTTGAACATTTTGCAAGTACAAAAAAATAATATATC [XGTACX_site8079],8.37 ± 0.11
19,TGTTAAATTATTTATCAGATTATTATTTGTAAATAA [CACACA_negctrl_site1535],7.92 ± 0.48
20,ACACATATATATATATATATATATATATATATATAT [CACACA_negctrl_site1766],9.84 ± 0.54
21,CAATTCTTAAGTTCTTGTACGAAAAACGACAATTTA [XGTACX_site3890],8.34 ± 0.57
22,AAGAAAAATAATTAGGGTGAAAATATATAGAGTAAA [TGCATGCA_negctrl_site590],8.62 ± 0.47
23,GGTAATAATATGCATAGTACATAATATATATATATA [XGTACX_site6793],9.94 ± 0.2
24,TATTATATAAAATATTTTATTATATCATCTTCTCTA [XGTACX_negctrl_site319],8.29 ± 0.4
